Among all 310,000 compounds or so, about 2,200 (0.71%) showed an effect of 50% or more. Effects have a minus sign here. Some of the results follow.
target: human ether-à-go-go-related gene (hERG) potassium channel (human, UniProt Q12809); test: primary screen, population patch clamp on CHO cells stably expressing hERG
Sequence (Q12809 whole entry, looked up): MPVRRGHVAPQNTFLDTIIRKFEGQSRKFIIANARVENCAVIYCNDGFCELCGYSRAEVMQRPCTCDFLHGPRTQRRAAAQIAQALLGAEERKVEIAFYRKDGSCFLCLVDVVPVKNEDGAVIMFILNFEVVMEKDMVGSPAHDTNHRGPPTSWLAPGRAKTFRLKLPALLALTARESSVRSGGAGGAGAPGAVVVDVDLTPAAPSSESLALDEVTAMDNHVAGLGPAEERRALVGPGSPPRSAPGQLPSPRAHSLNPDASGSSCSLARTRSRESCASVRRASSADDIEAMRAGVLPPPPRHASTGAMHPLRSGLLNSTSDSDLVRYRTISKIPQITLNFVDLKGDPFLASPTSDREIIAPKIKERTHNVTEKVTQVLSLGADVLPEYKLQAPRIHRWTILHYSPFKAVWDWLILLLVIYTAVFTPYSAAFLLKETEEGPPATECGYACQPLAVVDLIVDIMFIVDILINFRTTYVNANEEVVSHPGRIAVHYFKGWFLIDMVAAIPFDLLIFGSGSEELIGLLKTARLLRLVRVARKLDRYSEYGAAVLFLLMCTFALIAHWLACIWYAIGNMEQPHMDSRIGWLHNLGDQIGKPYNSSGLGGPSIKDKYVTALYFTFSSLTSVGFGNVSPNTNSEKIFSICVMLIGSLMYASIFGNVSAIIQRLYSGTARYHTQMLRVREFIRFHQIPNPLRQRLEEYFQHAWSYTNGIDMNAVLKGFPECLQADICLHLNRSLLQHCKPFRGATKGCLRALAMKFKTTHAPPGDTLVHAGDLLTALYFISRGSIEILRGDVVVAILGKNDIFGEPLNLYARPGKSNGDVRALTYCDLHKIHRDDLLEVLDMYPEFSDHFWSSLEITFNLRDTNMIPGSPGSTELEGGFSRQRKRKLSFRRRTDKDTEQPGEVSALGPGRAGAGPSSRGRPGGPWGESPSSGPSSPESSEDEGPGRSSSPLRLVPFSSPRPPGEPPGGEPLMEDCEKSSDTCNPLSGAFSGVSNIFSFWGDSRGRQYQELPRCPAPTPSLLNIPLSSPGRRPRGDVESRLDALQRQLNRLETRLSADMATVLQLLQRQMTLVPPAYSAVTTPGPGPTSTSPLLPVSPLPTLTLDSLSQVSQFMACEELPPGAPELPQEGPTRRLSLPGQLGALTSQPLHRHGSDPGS

Compared with `CC(C)CC(=O)c1c[nH]c(C(=O)NCCCN2CCOCC2)c1`, `CCOC(=O)C1CCCN(c2c(NCCC(C)C)c(=O)c2=O)C1` (stereo not shown) is lower in “hERG current change (%, negative = inhibition) at 1uM” value: 12.3% for the first, -5.87% for the second.

Compared with `O=C(C[n+]1cccc(NC(=O)c2ccccc2)c1)c1ccccc1.[Br-]`, `Cc1cccc(C)c1NC(=O)C(c1ccccc1)N1CC(=O)Nc2ccccc21` (stereo not shown) is higher in “hERG current change (%, negative = inhibition) at 1uM” value: -0.864% for the first, 10.8% for the second.

Compared with `COc1cccc(NC(=O)C(=O)N/N=C/c2cc(C)n(-c3ccc(Cl)c(Cl)c3)c2C)c1`, `COc1ccc(N2C(=O)CCC(C(=O)Nc3cccc(C)n3)C2c2ccc(OC)c(OC)c2)cc1` (stereo not shown) is lower in “hERG current change (%, negative = inhibition) at 1uM” value: 9.02% for the first, 4.99% for the second.

First: CC(C)(C)c1ccc(OC2=CS(=O)(=O)c3ccccc32)cc1
Second: COc1ccc(CN(C)C(=O)c2sccc2-c2ccccc2)c(OC)c1
The “hERG current change (%, negative = inhibition) at 1uM” value of the first is lower: 8.13% for the first, 12.3% for the second.

First: Cc1c(NC(=O)CSc2nnnn2Cc2ccccc2)c(=O)n(-c2ccccc2)n1C
Second: C=CCn1c(SCC(=O)N2CCN(c3ccccc3)CC2)nc2c([nH]c3ccccc32)c1=O
The “hERG current change (%, negative = inhibition) at 1uM” value of the first is lower: -2.14% for the first, 14.1% for the second.

First: Cc1ccc(CSCC(=O)N2CCN(Cc3ccc4c(c3)OCO4)CC2)cc1
Second: Cc1ccc(Cn2c(C)c3cnn(CC(=O)NC4CCCC4)c(=O)c3c2C)cc1
The “hERG current change (%, negative = inhibition) at 1uM” value of the first is lower: -1.45% for the first, 14.8% for the second.

Going from `N#Cc1c(-c2ccc(F)cc2)noc1N` to `Cc1nc([N+](=O)[O-])cn1CC(O)c1ccc(F)cc1` (stereo not shown), the “hERG current change (%, negative = inhibition) at 1uM” value rises from 9.55% to 11.1%.

Compared with `O=c1onc(-c2c(F)cccc2F)n1-c1ccccc1Cl`, `Cc1ccccc1-n1c(SCc2cc(=O)n3ccccc3n2)nc2[nH]ncc2c1=O` is lower in “hERG current change (%, negative = inhibition) at 1uM” value: 15.9% for the first, -9.75% for the second.

First: O=C(CN1C(=O)NC2(CCCCC2)C1=O)Oc1ccc2ccc(=O)oc2c1
Second: O=C(CN1C(=O)C2CCCCC2C1=O)Nc1nc2ccc(F)cc2s1 (stereo not shown)
The “hERG current change (%, negative = inhibition) at 1uM” value of the first is higher: 6.73% for the first, -12.1% for the second.

First: Cc1ccc(C(C)NC(=S)NCc2ccc(F)cc2)cc1C (stereo not shown)
Second: COc1ccc(S(=O)(=O)NCCC(=O)NC(C)c2ccccc2)cc1 (stereo not shown)
The “hERG current change (%, negative = inhibition) at 1uM” value of the first is higher: 3.82% for the first, 1.22% for the second.

First: CCOC(=O)c1c(C)n(C)c2ccc(OCC(O)Cn3c(C)nc4ccccc43)cc12 (stereo not shown)
Second: CCOC(=O)c1cc(-c2ccccc2)sc1NC(=O)CSc1nncs1
The “hERG current change (%, negative = inhibition) at 1uM” value of the first is lower: -0.275% for the first, 6.16% for the second.

First: Cc1ccc(-c2cc3nc(-c4ccccc4)cc(N)n3n2)cc1
Second: O=C(Oc1ccc(-c2cnc3ccccc3n2)cc1)c1ccc(Cl)c([N+](=O)[O-])c1
The “hERG current change (%, negative = inhibition) at 1uM” value of the first is higher: 13.1% for the first, 12% for the second.

Compared with `CC(=O)Nc1c(C)nn(-c2ccc([N+](=O)[O-])cc2)c1C`, `COC(=O)/C=C(\C)NC(=O)c1ccc(F)cc1` is lower in “hERG current change (%, negative = inhibition) at 1uM” value: 15.8% for the first, 13.7% for the second.

Compared with `CCOc1ccc(NC(=O)C(C)SC(N)=O)cc1` (stereo not shown), `FC(F)Oc1ccc(NC(=S)NC23CC4CC(CC(C4)C2)C3)cc1` is higher in “hERG current change (%, negative = inhibition) at 1uM” value: 8.65% for the first, 10.6% for the second.

Compared with `O=C(O)CCCCCNC(=O)c1ccccc1`, `O=C(COc1ccccc1)NN1C(=O)CSC1=S` is higher in “hERG current change (%, negative = inhibition) at 1uM” value: 11.9% for the first, 12.9% for the second.

Compared with `N#C/C(=C(\O)C(F)(F)F)c1nnc2n1CCCCC2`, `C=CCNC(=O)C(C#N)c1nc2ccccc2nc1N1CCCCCC1` (stereo not shown) is higher in “hERG current change (%, negative = inhibition) at 1uM” value: 6.54% for the first, 9.74% for the second.

Going from `O=C(NC1CCN(C(=S)Nc2ccc(F)cc2)CC1)C1CCCCC1` to `CCNC(=O)N1CCCC(C(=O)c2ccc(-c3ccccc3)cc2)C1` (stereo not shown), the “hERG current change (%, negative = inhibition) at 1uM” value rises from 12.7% to 15.3%.

Going from `Cc1ccc2nc(-c3ccccn3)c(NC3CCCC3)n2c1` to `COc1ccc(N(C(=O)c2snc(C(N)=O)c2N)C(C(=O)NC2CCCC2)c2ccc3ncccc3c2)cc1` (stereo not shown), the “hERG current change (%, negative = inhibition) at 1uM” value rises from 4.72% to 5.95%.

First: N#CC(c1ccc(O)cc1)c1ncc(C(F)(F)F)cc1Cl (stereo not shown)
Second: CCOc1ccccc1C(=O)OCC(=O)Nc1ncc(C(F)(F)F)cc1Cl
The “hERG current change (%, negative = inhibition) at 1uM” value of the first is higher: 10.4% for the first, 6.74% for the second.

First: COc1cc(OC)cc(C(=O)Nc2nc3ccccc3[nH]2)c1
Second: S=c1cnc2ccccc2[nH]1
The “hERG current change (%, negative = inhibition) at 1uM” value of the first is higher: 13.4% for the first, 12.6% for the second.

Going from `CCc1nn(CC(=O)N2CC(C)CC(C)C2)c(=O)c2cccn12` (stereo not shown) to `CCOC(=O)N1CCc2[nH]c3ccc(C)cc3c2C1`, the “hERG current change (%, negative = inhibition) at 1uM” value falls from 16.3% to 7.25%.

Compared with `COC(=O)c1cn(C(=O)c2cccs2)c2ccccc12`, `COC(=O)c1sc(NC(=S)NC(=O)c2ccccc2F)nc1C` is higher in “hERG current change (%, negative = inhibition) at 1uM” value: -3.75% for the first, 2.7% for the second.

Going from `CC1CCCN(C(=O)C23CCC(C)(C(=O)C2)C3(C)C)C1` (stereo not shown) to `CC1CCCCC1NC(=O)CN(C)S(=O)(=O)c1ccc2c(c1)CCC(=O)N2` (stereo not shown), the “hERG current change (%, negative = inhibition) at 1uM” value rises from -5.38% to 15.2%.

First: Cc1cc(C)n(CCN(C)c2nc3nonc3nc2N2CCCCC2)n1
Second: Cc1cc(C)cc(-n2cc[nH]c2=S)c1
The “hERG current change (%, negative = inhibition) at 1uM” value of the first is higher: 18.2% for the first, 3.19% for the second.

Going from `COc1ccc(-c2c3c(=O)n(C)c(=O)n(C)c3cn2-c2cc(OC)ccc2OC)cc1` to `CCN1C(=O)c2cccc3c(S(=O)(=O)NCCc4c[nH]c5ccccc45)ccc1c23`, the “hERG current change (%, negative = inhibition) at 1uM” value falls from -0.058% to -2.7%.

Going from `NC(=O)c1ccsc1NC(=O)CCS(=O)(=O)c1ccc(F)cc1` to `C=CCN(c1cccc(C(F)(F)F)c1)S(=O)(=O)c1cccc(C(=O)OCC(=O)NC)c1`, the “hERG current change (%, negative = inhibition) at 1uM” value falls from 9.5% to 2.89%.

Going from `O=C(c1nc[nH]c1C(=O)N1CCN(c2ccccc2)CC1)N1CCN(c2ccccc2)CC1` to `CCN(c1ccccc1)S(=O)(=O)c1ccc(NC(=S)NC(=O)c2ccc(Br)o2)cc1`, the “hERG current change (%, negative = inhibition) at 1uM” value falls from 12.8% to 2.46%.

Compared with `Clc1cc(Br)ccc1NCc1cccnc1`, `N#CNC(=Nc1cccc(F)c1)SCc1ccccc1` is higher in “hERG current change (%, negative = inhibition) at 1uM” value: 9.44% for the first, 11.1% for the second.

First: O=C(CCCN1C(=O)C2CC=CCC2C1=O)Nc1ccccc1F (stereo not shown)
Second: CC1CN(C(NC(=O)C(C)(C)C)C(Cl)(Cl)Cl)CC(C)O1 (stereo not shown)
The “hERG current change (%, negative = inhibition) at 1uM” value of the first is higher: -0.904% for the first, -4.08% for the second.

From PMC4336329 (PLoS ONE, 2015)
